In all, about 110,000 compounds went through this assay and about 230 (0.21%) showed an effect of 50% or more. The list shows a part of the results.
The compounds below were run against DPAP1 (Plasmodium falciparum, UniProt Q8IIJ9) (assay: primary screen, percent inhibition; read by cleavage of a fluorogenic dipeptide substrate; higher = more effect of the substance).
Parameters: species or system P. falciparum D10 trophozoite lysates; single well
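Further: 30 min substrate incubation versus DMSO and 10 µM JCP410 controls.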

Chain of DPAP1 (Q8IIJ9 whole entry, looked up): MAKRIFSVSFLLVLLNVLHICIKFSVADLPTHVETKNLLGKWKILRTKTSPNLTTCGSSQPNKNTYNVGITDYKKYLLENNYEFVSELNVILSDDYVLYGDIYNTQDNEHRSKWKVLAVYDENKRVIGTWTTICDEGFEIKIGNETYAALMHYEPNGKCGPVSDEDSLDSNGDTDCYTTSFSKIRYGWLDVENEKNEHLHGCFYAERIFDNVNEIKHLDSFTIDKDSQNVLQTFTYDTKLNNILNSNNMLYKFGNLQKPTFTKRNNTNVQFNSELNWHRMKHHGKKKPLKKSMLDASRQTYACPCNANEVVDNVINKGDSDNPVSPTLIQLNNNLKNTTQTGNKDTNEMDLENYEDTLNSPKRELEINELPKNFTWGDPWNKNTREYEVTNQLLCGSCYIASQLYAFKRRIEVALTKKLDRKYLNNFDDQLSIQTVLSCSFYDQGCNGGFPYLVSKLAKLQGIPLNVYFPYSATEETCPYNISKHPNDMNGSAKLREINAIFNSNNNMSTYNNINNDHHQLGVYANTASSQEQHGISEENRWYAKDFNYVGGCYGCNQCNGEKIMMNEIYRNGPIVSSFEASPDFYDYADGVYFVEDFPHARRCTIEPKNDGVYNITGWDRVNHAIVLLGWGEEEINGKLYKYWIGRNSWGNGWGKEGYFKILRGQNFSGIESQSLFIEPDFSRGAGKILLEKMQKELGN

In order of falling “% Inhibition @ 10 uM” value:
1. Cc1cccn2c(=O)c3cc(S(=O)(=O)c4ccccc4)c(=N)n(Cc4ccco4)c3nc12  22.7%
2. Cc1ccc(C2Nc3ccccc3C(=O)N2Cc2ccco2)cc1 (stereo not drawn)  10.6%
3. Cc1ccc(C2=NS(=O)(=O)N(C)C(C(=O)Nc3cccnc3)=C2)cc1  5.48%
4. Cc1cccc(Oc2nc3c4c(C)c(C)oc4ncn3n2)c1  4.2%
5. COc1ccc(S(=O)(=O)Nc2ccc(C)cc2C)cc1  3.85%
6. CSCCCN(CC(C)O)CC(C)O (stereo not drawn)  3.76%
7. COc1cc(/C=N/n2c(C)nnc2-n2nc(C)cc2C)cc(Br)c1O  2.56%
8. COc1ccc(N2C(=O)C(Cl)=C(Nc3ccc(C)c(C)c3)C2=O)cc1  1.08%
9. COc1ccc(NC(=O)C(Cc2ccc([N+](=O)[O-])cc2)N2C(=O)c3ccccc3C2=O)cc1 (stereo not drawn)  0.937%
10. Nc1nc(CN2CCC(Cc3ccccc3)CC2)nc(Nc2ccccc2)n1  0.408%
11. CCn1c(C)c(C)c2cc(C(=O)NCc3ccc4c(c3)OCO4)ccc21  0.399%
12. NC(=O)c1ccc(NC(=O)c2ccc3c(c2)OCO3)cc1  0.24%
13. Cc1ccc(S(N)(=O)=O)cc1NS(=O)(=O)c1ccc(Br)cc1  -1.17%
14. Cc1cccc(N2CCN(Cc3ccc(Cl)c([N+](=O)[O-])c3)CC2)c1C  -1.38%
15. O=C(Nc1ccc(Cl)cc1C(=O)Nc1cccc2ccccc12)c1ccco1  -1.59%
16. CCC(C)c1ccc(S(=O)(=O)N2CC(=O)Nc3ccccc32)cc1 (stereo not drawn)  -2.18%
17. COc1ccc(CNC(=O)Cc2c(C)c3cc(OC)c(OC)cc3oc2=O)cc1OC  -2.57%
18. c1ccc2cc(Cn3cnc4ccccc43)ccc2c1  -2.87%
19. CC(C)CC(C(=O)NCC#N)c1cccc(-c2cccc(OC3CCN(CCO)CC3)c2)c1 (stereo not drawn)  -3.04%
20. CCC(=O)N1CCc2cc(OC)c(OC)cc2C1COc1cccc(C(F)(F)F)c1 (stereo not drawn)  -3.56%
21. CN(CC(=O)Nc1cccnc1)S(=O)(=O)c1ccc2[nH]c3c(c2c1)CCCC3  -3.6%
22. CCNC(=O)Cn1cc(C#N)c2ccccc21  -3.63%
23. CC(C)CC(C(=O)NCC#N)c1ccc(NC(=O)NCc2cccnc2)cc1 (stereo not drawn)  -3.97%
24. Cc1ccc(-c2csc(Nc3ccc(O)cc3)n2)c(C)c1  -4.03%
25. CC1CCCCN1S(=O)(=O)c1ccc(CN2C(=O)c3cccnc3C2=O)s1 (stereo not drawn)  -7.28%
26. COc1ccc(N(CC(=O)NCc2ccccn2)S(=O)(=O)c2ccc(C)cc2)cc1Cl  -9.29%
27. Oc1ccc(Cl)cc1C1=CC(C(F)(F)C(F)F)=NCCN1  -12.2%
